# Assay results: the supplement of paper PMC3334620
# The full ranking holds about 33,000 sequences; the median of “E-score (-0.5 to 0.5)” is about -0.016, and the highest 2% start at about 0.31. The list shows a part of the results.
# Molecular target: Cst6 (UniProt P40535)
# Assay: PBM E-score (8-mer binding enrichment) (E-score (-0.5 to 0.5)); higher = stronger / more preferred TF binding; most listed sequences are background and not binding sites
# Conditions: protein concentration: 200 nM; construct: GST-DNA-binding domain
# Summary of the method: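 E-scores (a modified Wilcoxon-Mann-Whitney statistic) were assigned by the Universal PBM Analysis Suite to every ungapped eight-base word pooled with its reverse complement. The input came from universal all-10-mer Agilent arrays made double-stranded by primer extension and probed with GST-tagged yeast transcription factors at about 100-200 nM. Fluorescent anti-GST detected bound protein, and masliner normalised the scans.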
row,Sequence,PBM E-score
1,TATTTAAA,0.308
2,AATTGCAC,0.0926
3,AGTTCCAA,-0.0607
4,CAGGTCGA,-0.0317
5,ACGAAACC,0.117
6,ACTTCTCG,0.155
7,AACTCGTC,0.201
8,AAGTTGAG,-0.154
9,GGATTCGA,-0.204
10,AAGACTGT,-0.162
11,CCATTTAA,0.195
12,ATCCTTGG,0.0653
13,AGAAAAAA,0.249
14,CACTCAGC,-0.119
15,GCACCGAA,0.0718
16,AATTCGAG,-0.0256
17,CTACATCC,-0.0142
18,CATAAGTC,-0.0617
19,CAGTACAC,-0.00752
20,AATAGTGC,-0.0125
21,GGACGTCC,-0.128
22,CCCCAACC,-0.0534
23,CCCGGGAG,-0.236
24,GTACTGCA,-0.0985

row,Sequence,PBM E-score
1,ACTGCTCT,-0.0408
2,GTGTCAGA,-0.0004
3,GACCAATC,-0.00213
4,TCCCTGCA,-0.0815
5,GACGTGCC,0.014
6,AGGGGGTC,-0.385
7,ATGGCCTA,-0.123
8,ATTAACGG,0.0695
9,GTTGAGAA,-0.0503
10,AGGCCGTA,0.0502
11,CGCATGCA,0.0755
12,AGCGGTGA,0.192
13,ACTAAGAG,-0.0881
14,AGTAATAA,0.302
15,GATTTCGA,0.134
16,CAGAACAG,-0.123
17,AGAAAGAC,-0.157
18,GAAATGCC,0.116
19,AGGTAGTA,0.0537
20,CAGCCCGA,-0.29
21,ACGCAGCG,0.0172
22,ACTCTTCC,-0.143
23,AACACTGG,-0.0752
24,CGATGGAA,0.107

row,Sequence,PBM E-score
1,ACAGCCAG,-0.088
2,ATTCATCA,0.218
3,GAAGACCA,-0.213
4,ATAAGAGC,0.0402
5,GAGTAGAA,0.0886
6,ACGCGGCC,0.0568
7,CGGAAGGC,-0.255
8,CCTGCTAA,-0.222
9,GCGCACCA,-0.0013
10,AGCCGTAA,0.259
11,TCTAAACA,0.0833
12,GTATGTCA,0.422
13,GAGCAGCC,-0.0952
14,CTATGCAG,0.00763
15,AAAATTGT,0.151
16,AAGAGGAT,-0.116
17,ACAAGATC,-0.0252
18,GAGGGCAA,0.0197
19,TACTGGCA,-0.0625
20,CACCTAGA,-0.148
21,TACTCGGA,0.0206
22,AACCTACA,0.0728
23,AGGAACAC,0.0247
24,ATGCGACG,0.106

row,Sequence,PBM E-score
1,AGTCATTC,0.0571
2,CTTACGAA,0.119
3,AGTCAGGA,-0.168
4,AGGGAAGC,-0.302
5,TCGAGAAA,0.108
6,GCGGGGAA,-0.0925
7,CTGCCAAG,0.0469
8,AGAAAAAG,0.00776
9,GAAGGCCC,-0.252
10,CCTTCCCG,-0.29
11,CGGGCCGA,-0.167
12,CCGAATGC,-0.0132
13,TCCTAGCA,-0.162
14,TTCAAGAA,0.162
15,GGTTGTAA,0.0531
16,GTCTTTAA,0.0991
17,CCGTATAG,0.0115
18,ATTTTATG,0.248
19,CTACGTGC,-0.0624
20,CCAGTACG,0.0129
21,GCAGAAGA,0.0891
22,AGACATAA,0.0351
